Consider 91 compounds from PMC4336329 (PLoS ONE, 2015).

Each structure is given as a SMILES string. About 2,200 (0.71%) of roughly 310,000 compounds showed an effect of 50% or more. The effect is printed as a negative number. This is one part of the list.

The target in this test is human ether-à-go-go-related gene (hERG) potassium channel (human, UniProt Q12809). As to the kind of experiment: primary screen, population patch clamp on CHO cells stably expressing hERG.
human ether-à-go-go-related gene (hERG) potassium channel, sequence (Q12809 whole entry, looked up): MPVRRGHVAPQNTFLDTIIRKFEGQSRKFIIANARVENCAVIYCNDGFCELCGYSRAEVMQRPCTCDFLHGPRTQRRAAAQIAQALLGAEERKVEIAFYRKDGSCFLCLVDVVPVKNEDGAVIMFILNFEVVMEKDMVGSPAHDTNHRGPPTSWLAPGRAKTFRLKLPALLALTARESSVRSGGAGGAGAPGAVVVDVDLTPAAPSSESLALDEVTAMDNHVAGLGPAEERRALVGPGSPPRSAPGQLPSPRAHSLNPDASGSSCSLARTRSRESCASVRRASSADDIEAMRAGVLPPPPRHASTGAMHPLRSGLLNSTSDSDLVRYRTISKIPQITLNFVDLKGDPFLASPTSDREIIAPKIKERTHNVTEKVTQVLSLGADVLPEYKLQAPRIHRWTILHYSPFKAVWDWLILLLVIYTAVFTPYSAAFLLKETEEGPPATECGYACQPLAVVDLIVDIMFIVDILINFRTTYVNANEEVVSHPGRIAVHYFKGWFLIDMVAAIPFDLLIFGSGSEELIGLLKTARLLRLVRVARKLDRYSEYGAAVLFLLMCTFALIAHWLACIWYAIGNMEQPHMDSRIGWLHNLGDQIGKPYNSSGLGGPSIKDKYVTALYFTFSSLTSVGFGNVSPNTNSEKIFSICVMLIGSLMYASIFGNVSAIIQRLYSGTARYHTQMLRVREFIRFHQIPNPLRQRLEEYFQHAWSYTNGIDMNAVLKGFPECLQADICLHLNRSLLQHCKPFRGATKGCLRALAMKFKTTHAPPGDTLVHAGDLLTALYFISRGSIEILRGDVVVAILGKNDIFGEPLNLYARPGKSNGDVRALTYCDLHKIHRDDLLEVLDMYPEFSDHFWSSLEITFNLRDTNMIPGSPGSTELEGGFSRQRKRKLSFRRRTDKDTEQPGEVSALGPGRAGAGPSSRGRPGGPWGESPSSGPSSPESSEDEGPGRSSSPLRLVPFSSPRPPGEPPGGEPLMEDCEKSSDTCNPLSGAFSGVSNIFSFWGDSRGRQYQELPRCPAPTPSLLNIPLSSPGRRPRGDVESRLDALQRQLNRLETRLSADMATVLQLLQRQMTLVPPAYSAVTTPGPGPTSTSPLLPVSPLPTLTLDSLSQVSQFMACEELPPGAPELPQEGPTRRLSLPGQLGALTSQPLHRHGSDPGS
With `COc1ccc(/C=N/NC2=NCCCCC2)c(OC)c1.Cl`, the “hERG current change (%, negative = inhibition) at 1uM” value was 9.91%.
Take `Cc1ccc(S(=O)(=O)N(C)CC(=O)Nc2ccc(C)cn2)cc1`: the “hERG current change (%, negative = inhibition) at 1uM” value was 13%.
Take `COc1ccc(N=Nc2[nH]c3ccc(C)cc3c2O)cc1`: the “hERG current change (%, negative = inhibition) at 1uM” value is given as 13.5%.
On to `CCOC(=O)c1cc(COc2cc(Cl)cc(Cl)c2)on1`, for which the “hERG current change (%, negative = inhibition) at 1uM” value is recorded as 13.2%.
Turning to `CCC1=NN(C(=O)Cc2ccc(OC)cc2)C(O)(C(F)(F)F)C1` (stereo not shown), the “hERG current change (%, negative = inhibition) at 1uM” value is given as 2.59%.
In the case of `O=S(=O)(Nc1ccccc1Cl)c1cccc2nsnc12`, the “hERG current change (%, negative = inhibition) at 1uM” value is 4.1%.
Next, `CSc1nc2cc3c(cc2n1C(=O)c1ccc(C)cc1)OCCO3`: 12.8%; `COc1ccc(CCN(Cc2cccs2)S(=O)(=O)c2ccc(S(=O)(=O)N3CCC(C)CC3)cc2)cc1OC`: 14.3%; `COCCNC(=O)[C@H](C)[C@H]1C[C@]1(C)[C@H](NC(=O)OCc1ccccc1)c1ccccc1`: 8.88%.
In the case of `CCN(CC)S(=O)(=O)c1ccc(N=Cc2c(C)c(C#N)c(=O)n(C)c2O)cc1`, the “hERG current change (%, negative = inhibition) at 1uM” value is listed as 2.14%.
For the compound `Cc1cc(NC(=O)CCC(=O)N(CC(=O)NC2CCCC2)c2ccccc2)no1`, the “hERG current change (%, negative = inhibition) at 1uM” value came to 12.3%.
On to `O=C(NNc1ccccc1)C(=O)N1CCCCC1`, for which the “hERG current change (%, negative = inhibition) at 1uM” value was 8.08%.
Next, `CCCNC(=O)c1ccc(C2SCC(=O)N2Cc2ccccc2)cc1` (stereo not shown): 8.86%; `CCOc1ccc(C2NC(=O)c3n[nH]c(C)c32)cc1` (stereo not shown): 9.09%; `C=CCSc1nc(N)c(C(=O)Nc2ccccc2C)cc1C(N)=O`: 13.6%.
With `Nc1nonc1C(=O)N/N=C\c1cc2c(cc1Cl)OCO2`, the “hERG current change (%, negative = inhibition) at 1uM” value is given as 13.6%.
Next, `O=C(Nc1cccnc1)c1cc(-c2ccc(Cl)c(Cl)c2)on1`: 17%.
In the case of `COc1cccc(-n2ccnc2SCC(=O)Nc2cc(OC)ccc2OC)c1`, the “hERG current change (%, negative = inhibition) at 1uM” value was determined as 10.4%.
Take `COc1ccc(S(=O)(=O)NCCSCc2ccco2)cc1`: the “hERG current change (%, negative = inhibition) at 1uM” value was found to be 12%.
Next, `Cc1cccc(N2C(=O)CC(Cn3nc(C)cc3C)C2=O)c1` (stereo not shown): 8.98%; `O=S(=O)(CS(=O)(=O)c1ccc(Cl)cc1)c1ccc(Cl)cc1`: 15.2%.
Turning to `CC(C)CNC(=O)C(=O)Nc1ccc2c(c1)N(S(=O)(=O)c1cccs1)CCC2`, the “hERG current change (%, negative = inhibition) at 1uM” value worked out at 12%.
Consider `CCN(CC(=O)Nc1ccc2c(c1)OCCO2)C(=O)CSCC(=O)Nc1ccc(C)cc1`, for which the “hERG current change (%, negative = inhibition) at 1uM” value was found to be 2.62%.
The figure for `CCOc1ccccc1C1C(C#N)=C(SCC(=O)OC)NC(=O)C1C(=O)OC` (stereo not shown) is -11.2%; for `Cc1ccc(C(C[N+](=O)[O-])c2c(C)cc3ccccn23)cc1` (stereo not shown) it is 8.57%; for `CCN(CC)C(=O)c1sc2nc(-c3ccncc3)[nH]c(=O)c2c1C` it is 13.9%.
The figure for `O=C(N/N=C\c1c(O)ccc2ccccc12)c1ccc(S(=O)(=O)N2CCCCC2)cc1` is 4.84%; for `COc1ccc(N2CCN(Cc3cc4c(cc3Br)OCCO4)CC2)cc1` it is 14.8%; for `CCCc1cc(=O)oc2c3c(c4c(c12)OC(C)(C)C=C4)OC(C)C(C)C3O` (stereo not shown) it is 12.8%.
As to `S=C(NCc1cccs1)Nc1cccc(Cl)c1`, the “hERG current change (%, negative = inhibition) at 1uM” value came out at 0.718%.
Take `Cc1ccc(NC(=O)c2ccc(Cl)c(S(=O)(=O)N3CCCCC3)c2)nc1`: the “hERG current change (%, negative = inhibition) at 1uM” value was -4.65%.
The figure for `COc1ccc(C(CNC(=O)Nc2cccc(C)c2)N2CCN(C)CC2)cc1` (stereo not shown) is -17.3%; for `CCN1CC=C2C(C1)C(c1ccc(Cl)s1)C(C#N)=C(N)C2(C#N)C#N` (stereo not shown) it is -9.24%.
For `O=C(COc1ccccc1)Nc1nonc1NC(=O)COc1ccccc1`, the “hERG current change (%, negative = inhibition) at 1uM” value amounted to 1.64%.
As for `CSc1ccc(C(=O)C2CCCN(Cc3cnc(SC)nc3)C2)cc1` (stereo not shown), the “hERG current change (%, negative = inhibition) at 1uM” value is reported as -33.7%.
For `COc1cc(CNCCSc2nnnn2C)cc(Br)c1OCc1ccccc1.Cl`, the “hERG current change (%, negative = inhibition) at 1uM” value was -17.1%.
`Cc1ccc(NC(=S)N(CCN2CCOCC2)Cc2ccccc2F)cc1Cl`: the “hERG current change (%, negative = inhibition) at 1uM” value was found to be 12.3%.
For `CC(C)(C)c1ccc(C(=O)NNC(=O)C(=O)N2CCCCC2)cc1`, the “hERG current change (%, negative = inhibition) at 1uM” value worked out at 10.3%.
With `COc1ccc(CCNC(=O)c2nnn(CC(=O)Nc3ccccc3C)c2N)cc1OC`, the “hERG current change (%, negative = inhibition) at 1uM” value turned out to be 17.1%.
For `COC(=O)C(C)NC(=O)c1cn(-c2ccccc2OC)c(=O)c2ccccc12` (stereo not shown), the “hERG current change (%, negative = inhibition) at 1uM” value was 21%.
The figure for `COc1ccc(C)cc1NC(=O)C1CCN(S(=O)(=O)c2ccccc2)CC1` is 9.5%; for `O=C(NC(NC(=S)Nc1c(Cl)cccc1Cl)C(Cl)(Cl)Cl)OCc1ccccc1` (stereo not shown) it is 16.8%; for `COc1ccc(NC(=O)Cn2nc(C)c([N+](=O)[O-])c2C)cn1` it is 12.3%.
On to `COC(=O)NC(NC(=S)Nc1ccc([N+](=O)[O-])cc1)C(Cl)(Cl)Cl` (stereo not shown), for which the “hERG current change (%, negative = inhibition) at 1uM” value worked out at 10.3%.
As for `Cc1cc(C)n(-c2nc(NCCN(C)C)c3c4c(sc3n2)CCCC4)n1`, the “hERG current change (%, negative = inhibition) at 1uM” value turned out to be 4.17%.
Regarding `COc1ccc(CN2CCNC(=O)C2CC(=O)NCCN2CCCCC2=O)c(F)c1` (stereo not shown), the “hERG current change (%, negative = inhibition) at 1uM” value came out at 15.7%.
On to `Cc1ccc(S(=O)(=O)/N=C(\c2ccc(Cl)cc2)N2CCOCC2)cc1`, for which the “hERG current change (%, negative = inhibition) at 1uM” value is listed as -2.85%.
Turning to `CCCn1c(=O)c(C(=O)Nc2ccccc2)c(O)c2ccccc21`, the “hERG current change (%, negative = inhibition) at 1uM” value is reported as 4.76%.
For the compound `COc1ccc(Cl)cc1NC(=O)COC(=O)C1CCCCC1`, the “hERG current change (%, negative = inhibition) at 1uM” value is reported as 9.75%.
The figure for `Cc1nc2ccccc2n1CCOc1ccc(F)cc1` is 0.306%; for `COc1cc(/C=C/C(=O)OCC(=O)NCCc2ccccc2)ccc1OC(F)F` it is 13.8%; for `CCN1CC(CN(C)Cc2nc(-c3cccs3)no2)CC1=O` (stereo not shown) it is 12.6%.
For `CCc1ccc(NC(=S)NC2CCN(Cc3ccccc3)CC2)cc1`, the “hERG current change (%, negative = inhibition) at 1uM” value is recorded as -6.54%.
Turning to `Cn1c(SCc2ccc(Br)cc2)nnc1-c1ccccn1`, the “hERG current change (%, negative = inhibition) at 1uM” value is recorded as 8.1%.
The figure for `Nc1ncnc(N2CCOCC2)c1N` is 2.39%; for `CCOC(=O)CNC(=O)N1CCCC(N(C)CCc2ccccc2)C1` (stereo not shown) it is 7.93%.
With `COc1ccc(C(CNc2ccc(C(F)(F)F)cn2)N(C)C)cc1OC` (stereo not shown), the “hERG current change (%, negative = inhibition) at 1uM” value stood at 3.44%.
Next, `COCCNC(=S)c1ccc(OC)cc1`: 2.18%.
As for `Nc1nc(-c2ccc3c(c2)CCCC3)cs1`, the “hERG current change (%, negative = inhibition) at 1uM” value is recorded as 9.84%.
As to `NC(=O)NCc1ccc(F)cc1`, the “hERG current change (%, negative = inhibition) at 1uM” value stood at 4.8%.
With `Cc1cc(NC(=O)CCN2C(=O)C3C4CCC(C4)C3C2=O)c(C)cc1Br` (stereo not shown), the “hERG current change (%, negative = inhibition) at 1uM” value is -7.47%.
For `CCOC(=O)c1ccc(NC(=O)C2CC(=O)N(c3ccc4c(c3)OCCO4)C2)cc1` (stereo not shown), the “hERG current change (%, negative = inhibition) at 1uM” value was 12.9%.
For `CC1CCCCN1C(=O)CSc1nnc(-c2ccco2)o1` (stereo not shown), the “hERG current change (%, negative = inhibition) at 1uM” value was determined as 7.55%.
Consider `CC(=O)NC12CC3CC(C1)CC(C(=O)N(C)Cc1cccc(Cl)c1Cl)(C3)C2`, for which the “hERG current change (%, negative = inhibition) at 1uM” value is -0.167%.
Consider `O=C(N/N=C/c1ccc[nH]1)c1ccccc1[N+](=O)[O-]`, for which the “hERG current change (%, negative = inhibition) at 1uM” value was found to be 11.4%.
Next, `CCNc1nc(NC(C)C)nc(N(C#N)CCOc2ccccc2)n1`: 4.54%; `CC(=O)Nc1ccc(S(=O)(=O)NC(CC(=O)NCCC2=CCCCC2)C(C)C)cc1` (stereo not shown): 14.6%; `Cc1nc2c(-c3ccc(F)cc3)c(C)nn2c(N2CCOCC2)c1C`: 11.8%.
Regarding `Cc1ccc(-c2cc(C(F)F)nc(NCC3CCCO3)n2)cc1` (stereo not shown), the “hERG current change (%, negative = inhibition) at 1uM” value is on record as 6.46%.
As for `COC(=O)CSc1[nH]c2ccc(F)cc2c1[N+](=O)[O-]`, the “hERG current change (%, negative = inhibition) at 1uM” value is given as 14.7%.
Regarding `COC(=O)c1ccc(CSc2nc3c(c(=O)n2-c2ccccc2)SCC3)o1`, the “hERG current change (%, negative = inhibition) at 1uM” value is recorded as -2.1%.
As to `Cc1ccc(S(=O)(=O)NC2=NCN(C(C)C)CN2)cc1`, the “hERG current change (%, negative = inhibition) at 1uM” value was 11.5%.
As to `NC(=O)c1ccc(N2CCCCC2)c(N2C(=O)C3CC=CCC3C2=O)c1` (stereo not shown), the “hERG current change (%, negative = inhibition) at 1uM” value is reported as 11.9%.
On to `COc1ccc(N2C(=O)S[C@@H]3CS(=O)(=O)C[C@@H]32)cc1`, for which the “hERG current change (%, negative = inhibition) at 1uM” value is on record as 9.63%.
As to `O=C(O)COc1ccc(C(NC(=O)c2c(F)cccc2F)NC(=O)c2c(F)cccc2F)cc1`, the “hERG current change (%, negative = inhibition) at 1uM” value was found to be 16.9%.
For `CCN(c1ccccc1)S(=O)(=O)c1ccc(NC(=S)NC(=O)c2cccs2)cc1`, the “hERG current change (%, negative = inhibition) at 1uM” value is on record as 10.8%.
`Nc1nc(SCC(=O)N2CCN(c3ccc(F)cc3)CC2)n[nH]1`: the “hERG current change (%, negative = inhibition) at 1uM” value is reported as 6.06%.
Next, `N#Cc1cn(N2CCCCC2)c(=O)[nH]c1=O`: 16.8%.
Next, `O=C(NN1CCOCC1)c1ccc(Cl)s1`: -2.44%.
`CC(C(=O)NC1=NCCS1)(C(F)(F)F)C(F)(F)F`: the “hERG current change (%, negative = inhibition) at 1uM” value is given as -2.26%.
With `COc1ccc(CCNC(=O)C2CCN(S(=O)(=O)c3ccc(OC)cc3)CC2)cc1`, the “hERG current change (%, negative = inhibition) at 1uM” value is 2.69%.
As to `COc1ccc(Br)cc1S(=O)(=O)Nc1ccc(Cl)cn1`, the “hERG current change (%, negative = inhibition) at 1uM” value came to 6.89%.
As to `O=C(COC(=O)c1sc2cc(Cl)ccc2c1Cl)Nc1ncc(Cl)cc1Cl`, the “hERG current change (%, negative = inhibition) at 1uM” value came out at 14.3%.
With `CSCCC(NC(=O)c1ccccc1Cl)C(=O)N1CCC1` (stereo not shown), the “hERG current change (%, negative = inhibition) at 1uM” value is 4.59%.
With `NC(=O)COC(=O)CNC(=O)c1cc(Cl)cc([N+](=O)[O-])c1`, the “hERG current change (%, negative = inhibition) at 1uM” value is recorded as 12.5%.
Regarding `COc1ccc(C(=O)NCCS(=O)(=O)NC(C)c2ccccc2)cc1` (stereo not shown), the “hERG current change (%, negative = inhibition) at 1uM” value came to 2.49%.
The figure for `CC(=O)c1c(C)oc2ccc(N(C(C)=O)S(=O)(=O)c3ccc(F)cc3C)cc12` is 8.28%.
For `CCOc1ccc(NC(=O)C2CC(=O)N=C(N)S2)cc1` (stereo not shown), the “hERG current change (%, negative = inhibition) at 1uM” value is 11.7%.
For `CSc1ncccc1C(=O)OCC(=O)N1CCOCC1`, the “hERG current change (%, negative = inhibition) at 1uM” value worked out at 12.6%.
`COc1ccc(N2CCN(C(=O)COC(=O)CCc3ccccc3OC)CC2)cc1`: the “hERG current change (%, negative = inhibition) at 1uM” value worked out at 1.44%.
`O=C(Nc1ccc2nc(-c3cccnc3)[nH]c2c1)C12CC3CC(CC(C3)C1)C2`: the “hERG current change (%, negative = inhibition) at 1uM” value is 10.6%.
